Reference: a collection of fitness landscapes (doi:10.1126/science.1257360)
Some of the results follow.

B1: PhoQ; a variant is named by its letters at X, in order, P23837 (parent)
chain: MKKLLRLFFPLSLRVRFLLATAAVVLVLSLAYGMVALIGYSVSFDKTTFRLLRGESNLFYTLAKWENNKLHVELPENIDKQSPTMTLIYDENGQLLWAQRDVPWLMKMIQPDWLKSNGFHEIEADVNDTSLLLSGDHSIQQQLQEVREDDDDAEMTHSVAVNVYPATSRMPKLTIVVVDTIPVELKSSYMVWSWFIYVLSANLLLVIPLLWVAAWWSLRPIEALAKEVRELEEHNRELLNPATTRELTSLVRNLNRLLKSERERYDKYRTTLTDLTHSLKTPLXXLQXXLRSLRSEKMSVSDAEPVMLEQISRISQQIGYYLHRASMRGGTLLSRELHPVAPLLDNLTSALNKVYQRKGVNISLDISPEISFVGEQNDFVEVMGNVLDNACKYCLEFVEISARQTDEHLYIVVEDDGPGIPLSKREVIFDRGQRVDTLRPGQGVGLAVAREITEQYEGKIVAGESMLGGARMEVIFGRQHSAPKDE

Variants of: B1
Assay: enrichment ratio after two sorts for PhoP signalling (ratio (wild type AVST 3.29)); higher = more functional
Details: with PhoP (E. coli)

Row | Variant | enrichment ratio
1 | VLAI | ≤ 0.25
2 | PLKC | ≤ 0.25
3 | SFQK | ≤ 0.25
4 | RWKY | ≤ 0.25
5 | WSIW | ≤ 0.25
6 | QFWN | ≤ 0.25
7 | LIRG | ≤ 0.25
8 | MRSC | ≤ 0.25
9 | MATT | ≤ 0.25
10 | RAKP | ≤ 0.25
11 | LHVL | ≤ 0.25
12 | TISN | 13.4
13 | ATLH | 11.5
14 | GRHY | ≤ 0.25
15 | YAMH | ≤ 0.25
16 | AVVI | 3.1
17 | KVHG | ≤ 0.25
18 | DLFI | ≤ 0.25
19 | GKCV | ≤ 0.25
20 | AGVN | 6.57
21 | FGTP | ≤ 0.25
22 | DDAK | ≤ 0.25
23 | EVPI | ≤ 0.25
24 | QPRM | ≤ 0.25

Row | Variant | enrichment ratio
25 | RAPT | ≤ 0.25
26 | FHFA | ≤ 0.25
27 | NQMV | ≤ 0.25
28 | PRGQ | ≤ 0.25
29 | GGCY | 16.1
30 | SYSA | ≤ 0.25
31 | TIYP | 2.52
32 | IHDI | ≤ 0.25
33 | TNTD | ≤ 0.25
34 | AGRA | ≤ 0.25
35 | VWQV | ≤ 0.25
36 | SLNM | ≤ 0.25
37 | SQIG | 9.99
38 | VGFI | 0.424
39 | DAAS | ≤ 0.25
40 | TKGD | ≤ 0.25
41 | IHIT | ≤ 0.25
42 | GNER | ≤ 0.25
43 | TFKW | ≤ 0.25
44 | IIKT | ≤ 0.25
45 | HPWS | ≤ 0.25
46 | LALW | ≤ 0.25
47 | PEAE | ≤ 0.25
48 | DLMM | ≤ 0.25

Row | Variant | enrichment ratio
49 | DNDT | ≤ 0.25
50 | MCWV | 2.25
51 | KRCH | ≤ 0.25
52 | TQRE | ≤ 0.25
53 | KVEY | ≤ 0.25
54 | LRDM | ≤ 0.25
55 | EDND | ≤ 0.25
56 | HPGY | ≤ 0.25
57 | TAEM | 25.7
58 | MGWQ | 24.5
59 | MCCP | ≤ 0.25
60 | RAEP | ≤ 0.25
61 | PFAY | ≤ 0.25
62 | GSGL | 0.59
63 | FTEC | ≤ 0.25
64 | PGWT | ≤ 0.25
65 | CFSN | ≤ 0.25
66 | VTNG | ≤ 0.25
67 | NEIE | ≤ 0.25
68 | DGTN | ≤ 0.25
69 | NGAV | ≤ 0.25
70 | MNIN | ≤ 0.25
71 | NYMS | ≤ 0.25
72 | FAMK | ≤ 0.25

Row | Variant | enrichment ratio
73 | PAPP | ≤ 0.25
74 | IAMF | ≤ 0.25
75 | VQMW | ≤ 0.25
76 | FWLG | 1.07
77 | TIHN | 1.85
78 | IWQT | ≤ 0.25
79 | MRIR | ≤ 0.25
80 | YTLW | ≤ 0.25
81 | PRSW | ≤ 0.25
82 | RRIQ | ≤ 0.25
83 | HAVR | ≤ 0.25
84 | RTGD | ≤ 0.25
85 | KVGQ | ≤ 0.25
86 | MFVS | ≤ 0.25
87 | PNKI | ≤ 0.25
88 | HKTS | ≤ 0.25
89 | GLGY | ≤ 0.25
90 | ITPI | ≤ 0.25
91 | MEMF | 0.449
92 | RDDG | ≤ 0.25
93 | IINM | ≤ 0.25
94 | MAGW | ≤ 0.25
95 | LFSR | ≤ 0.25
96 | IMVL | ≤ 0.25

Row | Variant | enrichment ratio
97 | KVFC | ≤ 0.25
98 | IHYH | ≤ 0.25
99 | HLVW | ≤ 0.25
100 | KLIV | ≤ 0.25
101 | NCCC | ≤ 0.25
102 | VVWG | ≤ 0.25
103 | FMMI | ≤ 0.25
104 | APAG | ≤ 0.25
105 | NACV | ≤ 0.25
106 | NCRI | ≤ 0.25
107 | NAPM | ≤ 0.25
108 | APER | ≤ 0.25
109 | MWKF | ≤ 0.25
110 | PHHA | ≤ 0.25
111 | SNDR | ≤ 0.25
112 | NTTL | ≤ 0.25
113 | FCHD | ≤ 0.25
114 | RHHY | ≤ 0.25
115 | SGLF | 8.98
116 | REYR | ≤ 0.25
117 | IRVE | ≤ 0.25
118 | ANMR | 5.84
119 | TPRV | ≤ 0.25
120 | FGDC | ≤ 0.25

Row | Variant | enrichment ratio
121 | KCAS | ≤ 0.25
122 | GIRS | ≤ 0.25
123 | TCNN | 5.79
124 | SPCP | ≤ 0.25
125 | NWSG | ≤ 0.25
126 | TSPY | ≤ 0.25
127 | ETHW | ≤ 0.25
128 | RKPE | ≤ 0.25
129 | WRVF | ≤ 0.25
130 | NEVV | ≤ 0.25
131 | KYQN | ≤ 0.25
132 | REGN | ≤ 0.25
133 | HQKW | ≤ 0.25
134 | QGSP | ≤ 0.25
135 | VAGI | ≤ 0.25
136 | KVQI | ≤ 0.25
137 | MGGM | 9.49
138 | SFEE | ≤ 0.25
139 | IIHA | ≤ 0.25
140 | LPCF | ≤ 0.25
141 | SMCC | 2.5
142 | QMPG | ≤ 0.25
143 | KKRC | ≤ 0.25
144 | TVFT | ≤ 0.25

Row | Variant | enrichment ratio
145 | AWWN | ≤ 0.25
146 | FEKY | ≤ 0.25
147 | WKGD | ≤ 0.25
148 | FIRD | ≤ 0.25
149 | YNEG | ≤ 0.25
150 | LRMT | ≤ 0.25
151 | DTCH | ≤ 0.25
152 | DRRQ | ≤ 0.25
153 | IDCT | ≤ 0.25
154 | LQWE | ≤ 0.25
155 | QEYQ | 30.4
156 | NFWM | ≤ 0.25
157 | YGHW | ≤ 0.25
158 | NHWL | ≤ 0.25
159 | VTIH | ≤ 0.25
160 | ATSD | ≤ 0.25
161 | IMYH | ≤ 0.25
162 | EHRI | ≤ 0.25
163 | YLLY | ≤ 0.25
164 | TDMS | 2.96
165 | MEQR | ≤ 0.25
166 | NWDQ | ≤ 0.25
167 | NMWY | ≤ 0.25
168 | NLKM | ≤ 0.25

Row | Variant | enrichment ratio
169 | TIQV | 7.38
170 | GSDS | ≤ 0.25
171 | SWSM | ≤ 0.25
172 | GRMM | ≤ 0.25
173 | FKQY | ≤ 0.25
174 | AVIL | 1.98
175 | FMIQ | ≤ 0.25
176 | AKIP | ≤ 0.25
177 | GFPT | ≤ 0.25
178 | VKVP | ≤ 0.25
179 | NDPW | ≤ 0.25
180 | MHRE | ≤ 0.25
181 | NGGL | ≤ 0.25
182 | RSKP | ≤ 0.25
183 | FIAD | ≤ 0.25
184 | FFLT | ≤ 0.25
185 | THWN | ≤ 0.25
186 | YNTW | ≤ 0.25
187 | GWQR | ≤ 0.25
188 | QTFL | 1.72
189 | VGDQ | ≤ 0.25
190 | TNWC | ≤ 0.25
191 | NSDM | ≤ 0.25
192 | ARYA | ≤ 0.25

Row | Variant | enrichment ratio
193 | PVGN | ≤ 0.25
194 | IARG | ≤ 0.25
195 | QHWW | ≤ 0.25
196 | WNEF | ≤ 0.25
197 | WMWN | ≤ 0.25
198 | LAVR | ≤ 0.25
199 | RLRS | ≤ 0.25
200 | LDQH | ≤ 0.25
201 | CLPY | ≤ 0.25
202 | DFKI | ≤ 0.25
203 | AKCW | ≤ 0.25
204 | IQEF | ≤ 0.25
205 | NKMM | ≤ 0.25
206 | YLWC | ≤ 0.25
207 | TPNV | ≤ 0.25
208 | LVWG | ≤ 0.25
209 | SENQ | 6.11
210 | WALI | 5.29
211 | HIWW | ≤ 0.25
212 | RPPK | ≤ 0.25
213 | YQKR | ≤ 0.25
214 | YNNE | ≤ 0.25
215 | APSP | ≤ 0.25
216 | PCNV | ≤ 0.25

Row | Variant | enrichment ratio
217 | LIPN | ≤ 0.25
218 | PQCH | ≤ 0.25
219 | RCDT | ≤ 0.25
220 | FLLK | ≤ 0.25
221 | GQQR | ≤ 0.25
222 | HHQL | ≤ 0.25
223 | NSTP | ≤ 0.25
224 | QKSP | ≤ 0.25
225 | PEVV | ≤ 0.25
226 | ANHK | ≤ 0.25
227 | FIHW | ≤ 0.25
228 | DMEV | 1.69
229 | ELCW | ≤ 0.25
230 | QCHP | ≤ 0.25
231 | FQFF | ≤ 0.25
232 | KVII | ≤ 0.25
233 | FDFQ | ≤ 0.25
234 | VLAP | ≤ 0.25
235 | KSAG | ≤ 0.25
236 | SYYA | ≤ 0.25
237 | YCQH | ≤ 0.25
238 | ISGF | ≤ 0.25
239 | VRCD | ≤ 0.25
240 | ANAQ | 2.2

Row | Variant | enrichment ratio
241 | IDYW | ≤ 0.25
242 | WPKP | ≤ 0.25
243 | DDCV | ≤ 0.25
244 | RIIG | ≤ 0.25
245 | EYYR | ≤ 0.25
246 | WYQD | ≤ 0.25
247 | SHFA | ≤ 0.25
248 | MRFK | ≤ 0.25
249 | YSKY | ≤ 0.25
250 | YAAC | ≤ 0.25
251 | AILI | 1.77
252 | YFCS | ≤ 0.25
253 | QQWK | ≤ 0.25
254 | WCWI | ≤ 0.25
255 | PDNL | ≤ 0.25
256 | FEPH | ≤ 0.25
257 | WPSE | ≤ 0.25
258 | GWGA | ≤ 0.25
259 | SEVS | 20.4
260 | WLWA | ≤ 0.25
261 | GILY | 7.36
262 | KTGL | ≤ 0.25
263 | LEVC | ≤ 0.25
264 | KILS | ≤ 0.25

Row | Variant | enrichment ratio
265 | KLLP | ≤ 0.25
266 | YMNS | ≤ 0.25
267 | KAPN | ≤ 0.25
268 | GAAL | ≤ 0.25
269 | DGLG | ≤ 0.25
270 | KGEI | ≤ 0.25
271 | SLVA | ≤ 0.25
272 | RFHR | ≤ 0.25
273 | KRFL | ≤ 0.25
274 | LNVL | ≤ 0.25
275 | PGRQ | ≤ 0.25
276 | WYMD | ≤ 0.25
277 | FQGA | ≤ 0.25
278 | TGKP | ≤ 0.25
279 | MMDR | ≤ 0.25
280 | TRWV | ≤ 0.25
281 | QSEF | ≤ 0.25
282 | MKGR | ≤ 0.25
283 | MKAQ | ≤ 0.25
284 | HPVT | ≤ 0.25
285 | KVFG | ≤ 0.25
286 | YIWG | ≤ 0.25
287 | WDVY | ≤ 0.25
288 | YFFG | ≤ 0.25

Row | Variant | enrichment ratio
289 | YSNG | ≤ 0.25
290 | VAEE | ≤ 0.25
291 | EMWY | ≤ 0.25
292 | EAFA | ≤ 0.25
293 | QRFC | ≤ 0.25
294 | PLLT | ≤ 0.25
295 | ICRF | ≤ 0.25
296 | PQLG | ≤ 0.25
297 | ENNA | ≤ 0.25
298 | MQSM | 8.88
299 | SNAA | 4.44
300 | QKWF | 12.7
301 | KVTR | ≤ 0.25
302 | YWCD | ≤ 0.25
303 | DACF | ≤ 0.25
304 | HPRE | ≤ 0.25
305 | TILK | ≤ 0.25
306 | RHGA | ≤ 0.25
